For 17 molecules, cell count results are on record in the supplement of paper PMC4604168 (melanoma cell lines).

SMILES strings stand for the structures. The list shows a part of the results. Repeats are few or missing, and single values can be far off.
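Further: cell number obtained by counting DAPI-stained nuclei in high-throughput microscope images with image analysis software, screen run in 1,536-well plates.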

One experiment concerns MZ2-MEL. The experiment can be described thus: cell count relative to DMSO control; melanoma cells; higher = more viable cells. As to conditions: library dose: low library concentration; 72 h.
Regarding `CCc1ccc(CCOc2ccc(CC3SC(=O)NC3=O)cc2)nc1` (configuration not stated) [pioglitazone] + CCCCCCCCCCCC1=C(O)C(=O)C=C(O)C1=O [Embelin] (first compound 2 µM, partner dose 1.2 µM), the cell count was 99.2%.
As to `COc1cc2c(Oc3ccc4[nH]c(C)cc4c3F)ncnc2cc1OCCCN1CCCC1` [cediranib] + CCCCCCCCCCCC1=C(O)C(=O)C=C(O)C1=O [Embelin] (first compound 0.4 µM, partner dose 1.2 µM), the cell count stood at 93.6%.
`CC(C)(C)c1cnc(CSc2cnc(NC(=O)C3CCNCC3)s2)o1` + Cc1cc([N+](=O)[O-])ccc1NS(=O)(=O)c1cc(Cl)ccc1Cl [FH535] (first compound 0.01 µM, partner dose 1 µM) displayed a cell count of 92.6%.
As for `CC(C)(C)c1cnc(CSc2cnc(NC(=O)C3CCNCC3)s2)o1` + N#Cc1c(O)c2c(-c3ccc(-c4ccccc4O)cc3)csc2[nH]c1=O [A769662] (first compound 0.01 µM, partner dose 2 µM), the cell count was 104%.

A further experiment relates to MeWo. Described as above. As to conditions: library dose: low library concentration; 72 h.
As to `CC(C)(C)c1cnc(CSc2cnc(NC(=O)C3CCNCC3)s2)o1` + COc1ccc2c(c1)CCC1C2CCC2(C)C(NCCCCCCN3C(=O)C=CC3=O)CCC12 [U73122] (first compound 0.01 µM, partner dose 0.4 µM), the cell count amounted to 106%.
Regarding `CC(C)(C)c1cnc(CSc2cnc(NC(=O)C3CCNCC3)s2)o1` + Oc1cc(-c2nc(-c3ccccc3)[nH]c2-c2ccncc2)ccc1Cl [L779450] (first compound 0.01 µM, partner dose 0.2 µM), the cell count stood at 107%.
Still for that read-out and setting: the result for `CC(C)(C)c1cnc(CSc2cnc(NC(=O)C3CCNCC3)s2)o1` + Cn1cc(/C=C2\C(=O)Nc3cccnc32)c2ccccc21 [GW441756] (first compound 0.01 µM, partner dose 0.4 µM) reads 109%; that for `CN(NC(=O)CC(=O)NN(C)C(=S)c1ccccc1)C(=S)c1ccccc1` + COc1cc2ncnc(Nc3ccc(Oc4ccccc4)cc3)c2cc1OC [SrcI1] (first compound 0.006 µM, partner dose 2 µM), 79.2%.
With `CCc1ccc(CCOc2ccc(CC3SC(=O)NC3=O)cc2)nc1` (configuration not stated) [pioglitazone] + c1cc(-c2cnn3cc(-c4ccc(OCCN5CCCCC5)cc4)cnc23)ccn1 [Dorsomorphin] (first compound 2 µM, partner dose 0.4 µM), the cell count is 103%.
Turning to `Cc1ccc(NC(=O)c2cccc(N(C)C)c2)cc1NC(=O)c1ccc(O)cc1` + Cn1cc(/C=C2\C(=O)Nc3cccnc32)c2ccccc21 [GW441756] (first compound 2 µM, partner dose 0.4 µM), the cell count is 104%.
The same measure, in the same setting: the result for `CN(NC(=O)CC(=O)NN(C)C(=S)c1ccccc1)C(=S)c1ccccc1` + O=c1cc(-c2cccc3c2Sc2ccccc2S3)oc(N2CCOCC2)c1 [KU55933] (first compound 0.006 µM, partner dose 1 µM) reads 91.5%.
In turn, `CC(C)(C)c1cnc(CSc2cnc(NC(=O)C3CCNCC3)s2)o1` + O=C1NC(=O)/C(=C/c2ccc(-c3ccc(F)cc3O)o2)S1 [AS252424] (first compound 0.01 µM, partner dose 1 µM) showed a cell count of 97.5%.
In turn, `CN(NC(=O)CC(=O)NN(C)C(=S)c1ccccc1)C(=S)c1ccccc1` + O=C(Nc1ccccc1)c1cc([N+](=O)[O-])ccc1Cl [GW9662] (first compound 0.006 µM, partner dose 2 µM) displayed a cell count of 78.4%.
Same read-out and setting: the result for `COc1cc2c(Oc3ccc4[nH]c(C)cc4c3F)ncnc2cc1OCCCN1CCCC1` [cediranib] + O=C(O)C(=O)Nc1sc2c(c1C(=O)O)CCNC2 [TCS401] (first compound 0.4 µM, partner dose 1.66667 µM) reads 103%.
Same read-out and setting: the result for `CC(C)(C)c1cnc(CSc2cnc(NC(=O)C3CCNCC3)s2)o1` + O=c1cc(-c2cccc3c2Sc2ccccc2S3)oc(N2CCOCC2)c1 [KU55933] (first compound 0.01 µM, partner dose 1 µM) reads 88%; that for `COc1cc2c(Oc3ccc4[nH]c(C)cc4c3F)ncnc2cc1OCCCN1CCCC1` [cediranib] + CCc1ccc(CCOc2ccc(CC3SC(=O)NC3=O)cc2)nc1 [pioglitazone] (first compound 0.4 µM, partner dose 2 µM), 108%.
On the same count and under the same terms, the result for `CN(NC(=O)CC(=O)NN(C)C(=S)c1ccccc1)C(=S)c1ccccc1` + O=C(O)C(=O)Nc1sc2c(c1C(=O)O)CCNC2 [TCS401] (first compound 0.006 µM, partner dose 1.66667 µM) reads 85.4%.
